Reference: PubChem BioAssay AID624417 (National Center for Advancing Translational Sciences (NCATS), 2012)
Screen size: about 410,000 compounds; about 6,400 (1.6%) were called active. This list was built around the results that the source calls inconclusive (neither active nor inactive); the mix of calls is not that of the screen. Calls follow the shape of the dose curve; as a rule, active = well fitted inhibition curve with a large enough effect; inconclusive = small, poorly fitted or top-dose-only effect; inactive = no such curve, though single readings can be large or run the other way. Potencies of inconclusive entries are left out as doubtful fits.
Also: nearly all actives have a fitted effect of over 55% in size.
Potency is read from the fitted curve at half-maximal effect; tags tell the direction and shape of the fitted curve.

Each compound was assayed against Glucagon-like peptide 1 receptor (Homo sapiens) (UniProt P43220) (assay: qHTS of GLP-1 Receptor Inverse Agonists (Inhibition Mode)). Settings: HEK293 GLP-1R CRE-luciferase, luminescence, 24 h, GLP-1R form is constitutively active; series mostly up to 38.3 µM.
Chain of UniProt P43220 (P43220 whole entry, looked up): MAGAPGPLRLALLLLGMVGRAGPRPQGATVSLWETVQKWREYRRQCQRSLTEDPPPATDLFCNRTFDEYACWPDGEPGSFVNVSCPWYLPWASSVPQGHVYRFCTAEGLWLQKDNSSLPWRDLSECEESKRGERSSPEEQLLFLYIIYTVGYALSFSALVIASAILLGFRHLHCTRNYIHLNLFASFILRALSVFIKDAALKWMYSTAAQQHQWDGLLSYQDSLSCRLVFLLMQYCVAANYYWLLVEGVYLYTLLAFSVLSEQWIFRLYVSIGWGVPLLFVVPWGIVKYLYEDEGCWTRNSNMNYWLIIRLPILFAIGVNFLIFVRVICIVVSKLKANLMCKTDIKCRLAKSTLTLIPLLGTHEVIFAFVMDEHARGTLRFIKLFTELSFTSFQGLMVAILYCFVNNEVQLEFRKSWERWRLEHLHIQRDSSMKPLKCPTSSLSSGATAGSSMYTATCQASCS
Summary of the method: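 GLP-1R inverse agonism mode: basal reporter luminescence in engineered HEK293 cells measured after one day of compound exposure at 37 deg C, with a 12 min room-temperature detection step.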
In the case of `CCN(CC)CCCNC(=O)CCC(=O)Nc1ccc2nc(N3CCCCC3)cc(C)c2c1`, the Potency is reported as inconclusive [inhibitor, single point]. In the case of `CCOC(=O)C1(C)CCCCCN1C(=O)c1ccc(OC)cc1` (configuration not stated), the Potency is reported as “inactive”. For `CC(C)(C)N(Cc1ccccc1)C(=O)c1ccc(Cl)cc1[N+](=O)[O-]`, the Potency was inconclusive [inhibitor, single point]. In the case of `Cc1ccc2oc(-c3ccc(Cl)c(NC(=O)c4cc5ccccc5o4)c3)nc2c1`, the Potency is reported as “inactive”. For `CC(C)c1ccccc1-n1c(SCC(=O)N2CCN(c3ccccc3)CC2)nnc1-c1cccnc1`, the Potency was inconclusive [inhibitor, partial curve, poor fit]. For `Cc1cc2c(cc1C)N(Cc1ccc(Cl)cc1)C1=NCCCN12`, the Potency was inconclusive [inhibitor, partial curve, poor fit]. `Brc1ccc(OCc2ccccc2)c(CNCC2CCCO2)c1` (configuration not stated) was tested, and the Potency was inconclusive [inhibitor, partial curve, poor fit]. With `COC(=O)C(C)N1C(=O)S/C(=C\c2cc(C)n(-c3ccccn3)c2C)C1=O` (configuration not stated) the Potency was inconclusive [inhibitor, partial curve, poor fit]. `COc1cc(C(=O)OCC(=O)Nc2ccc3c(c2)OC(F)(F)O3)ccc1OCc1c(C)noc1C` was tested, and the Potency was inconclusive [inhibitor, full curve, poor fit]. For `Cc1ccccc1NS(=O)(=O)c1ccc(C(=O)N2CCCCCCC2)cc1`, the Potency was inconclusive [inhibitor, partial curve, poor fit]. In the case of `Cc1cc(=O)c2ccc3ccccc3c2[nH]1`, the Potency is reported as inconclusive [inhibitor, single point]. For `Cc1nc2nc(CNC(=O)c3cccc(F)c3)nn2c(C)c1CCC(=O)Nc1cccc(Cl)c1`, the Potency was “inactive”. For `Cc1nn(C(C)C(=O)Nc2ccccc2C(F)(F)F)c(=O)c2c1sc1ccccc12` (configuration not stated), the Potency was “inactive”. `COCCn1c2nc(=O)n(-c3ccccc3)c(=O)c-2nc2ccccc21` was tested, and the Potency was inconclusive [inhibitor, partial curve]. In the case of `Cc1ccc(NC(=O)c2ccc(NCCCN3CCOCC3)c([N+](=O)[O-])c2)cc1Cl`, the Potency is reported as inconclusive [inhibitor, partial curve, poor fit]. With `Clc1ccc(-c2ncc3ccccn23)c(Cl)c1` the Potency was inconclusive [inhibitor, single point]. With `CCN(C(=O)[C@@H]1CCCN1C(=O)c1cccs1)c1nc2cc(Cl)ccc2s1` the Potency was inconclusive [inhibitor, single point].
